For 167 variants, self-cleavage results are on record in the RNAGym collection of RNA variant scans (doi:10.7554/elife.90254).

B1: LINE1-full (parent)
chain: UACGUAGGUGGUUUUCCCCUGAUAGUGCUAAGGGGGCCUGGAAGUUUGGACUGGGCAGAGCUCAACACAGCGUGGCAAAGUGGCUGUGGCUAGACUGCCUCUCUGGAUUCCUCGUCACUCAGCAGGGCAUCUCUGAGAGAAAUGCC

Read counts are not given, so values of variants with three or more changes are uncertain.

The variants in the series derive from B1. The series can be described thus: self-cleavage, relative activity (ratio to wild type); higher = more cleavage; in vitro, sequencing; the parent is a self-cleaving ribozyme.
For U9A C99U A136G G137U, the self-cleavage was 0.34. In the case of G7U A57U A64C, the self-cleavage was determined as 0.12.

With U26C G49U G58U A138G, the self-cleavage was 0.1. Under A31G A43G A65G stands 0.

For A6G U13C G49A, the self-cleavage is 0.64.

With U62C U73A C113U, the self-cleavage is 0.05. In the case of U46C U115A A121U A141G, the self-cleavage amounted to 1.54. Under U9C A43G A50G stands 1.53; under U15G G32A U73G A79G U112C, 1.04; under A24G A117G A138G, 1.02. Under U52C U62C U130C stands 0.11; under A59G U100C G144A, 0.06; under U12C U29C A77U U109C, 2.12. Under U5C U62C U73A G114A U134C stands 0.1; under U47A U109A U119C U143C, 1.7. U14C G36C A50G: the self-cleavage is 0.59.

Take G11A A43G A78G: the self-cleavage stood at 0.73. U100C U104C A138G: the self-cleavage was 2.8. For the variant A50G U96C U112A, the self-cleavage is 0. The value for G35U U100C U102A was 1.87.

For the variant A42U A57U U115A U134C, the self-cleavage is 0.08. Take U12C A67U A69G: the self-cleavage came out at 0.1. U45A U96C U130A: the self-cleavage was 0.09. The value for G10A U85C U132A was 0; that for U9C U12C A94G was 0.

On to U1C U13C C37U U39C A64G, for which the self-cleavage turned out to be 0.16. For the variant A2G U9C A42U, the self-cleavage worked out at 1.12.

As for A57U G86A A141G, the self-cleavage is 0.04. On to A42G U73C A92G, for which the self-cleavage stood at 0.71. For A77U U81G U102A U104C A140G, the self-cleavage came to 1.43. Under U13C A50G U85C A136U stands 0.19; under U9C A50G U104A, 1.16. Take G54A U109C A117G: the self-cleavage was 0.27. A78G U108C A117U: the self-cleavage turned out to be 1.21. Under U9C A57U A69G U96C stands 0.61; under U73C U87G A142G, 0.47.

As to U15C U39C A69G, the self-cleavage is 1.31.

As to U1C U45A A65U U130C, the self-cleavage was found to be 0.18. Take U85A A140U A141G: the self-cleavage is 0.05. The value for U13C C16U A64U A79C C116U was 0.34; that for U9A U12C C38A U47G A50G A78G A121C was 1.72. The value for G36C A64U G72U A107G U108C was 0.38; that for U9C G35A U45C A78U was 1.62. For C37A U73A U100C A129G U132C, the self-cleavage was determined as 1.98. On to A78U U119A A129G, for which the self-cleavage amounted to 2.94. Under U1C C16U U108C U132C stands 0.78. Consider A2C U20G U130C, for which the self-cleavage amounted to 0.85. Under A6G A31U A65G stands 0; under A42G A77U U104C, 1.68. Under A31U U73C U102A stands 1.49; under U12A A57G C66U A79G, 0.08. In the case of U5A A42G U87A U115C, the self-cleavage was 0.26. Regarding U13C U15C U47C A59G, the self-cleavage amounted to 0. For the variant G7U U15A U81C C103A A136G, the self-cleavage came to 0.8. As to A77U A94U A142U, the self-cleavage turned out to be 0.23.

Turning to A79G C90U A121G, the self-cleavage came out at 0.06. The value for A2G C18U A50G U85A U104C was 0.18. Under U20C U46C U91C U134A stands 0.

In the case of U20C A22G A42G U46C, the self-cleavage stood at 1.62. Under U96C U132C A142G stands 0.14; under C37U U85C U104C U143C, 0.1; under A64G G74A A142G, 0.19. Under G4C U87C U115C stands 0.54.

Consider U9C U20C C51U U87G U96C, for which the self-cleavage came out at 0.39. Consider A31U G44A A65G U87C, for which the self-cleavage amounted to 0.08. The value for G27A A57G A79G A92G A141G was 0.23; that for U1C G36C U52C U134C G139A was 1.6. For the variant U9A U13C G35U U39C C66G U73A A107G A124U, the self-cleavage came out at 0.06. Regarding U20A A64G U96A U100A, the self-cleavage is 0.19.

On to U26C U112C C113U, for which the self-cleavage was found to be 0.31. Under U13C G58A U108C stands 0.11; under U47A A65C U87C, 0.03. Regarding U52C G54A A67G A78G, the self-cleavage worked out at 0.06.

As to G54U U96A A117U A136G A141G U143C, the self-cleavage amounted to 0.06.

Regarding U20A C37U U109C U115C, the self-cleavage was found to be 1.7. For A69G A78G U85A A121C A142G, the self-cleavage was 0. As for A67G G114U A124G, the self-cleavage is 0.3. Consider A24G U52C A124G, for which the self-cleavage came to 0.32. Regarding U9G A69G U130C, the self-cleavage amounted to 0.94. For the variant U73A A79G U81C G122U A142G, the self-cleavage was found to be 1.42. For the variant U14C A77U U115A, the self-cleavage was found to be 0.73. In the case of U14C U39A A67G A77U U85C U91A A142G, the self-cleavage is 0. The value for A57U U87C A94G C128A was 0.04; that for G32A G55U U62C G114U A136G A142G was 0.06. Consider U9A G72U A78G A140G A141G, for which the self-cleavage worked out at 1.51. With G53A A78G A79U U87C C123A, the self-cleavage worked out at 0.08. The value for G33A A59G C133U A140G was 0.04; that for U12G U23C A79G G83A was 1.19. Under U9C U12G U29C C84U stands 0.99; under U13A A22G U96C U104C C118A, 0.6; under A64G A124U A141G, 0.27. The value for G34A A57G U143C was 0.95.

U26C U29C C38U U85A: the self-cleavage was found to be 0.32. The value for A30G A42G A43G U85A was 0; that for A24U A50G A64U U73A was 0.59; that for U12A U73C A142G was 1.88. As to U46C U96C C103A A124G, the self-cleavage was 0.12.

Consider U12C A57U A77U U100C, for which the self-cleavage amounted to 0.28. Under U47C U115A A138G A141G stands 1.55. Consider U12G U20C C98U, for which the self-cleavage is 0.35. Under A24U U47G U52A U62C G72U U85C stands 0.14; under A121U A129G A140G, 1.48. For the variant A42G U87A A138G, the self-cleavage turned out to be 0.13.

Consider U12C U13C U115C, for which the self-cleavage turned out to be 0.79.

As to U39A U62C U73C, the self-cleavage was 0.09. Consider A2G U85A U132C, for which the self-cleavage is 0.18. Take A59G A67G G105A U115C: the self-cleavage came out at 0. In the case of U14C A121G G139U C146U, the self-cleavage was found to be 1.87. On to U14C A65U U108C A129G A138G, for which the self-cleavage was found to be 0.14. Take U5C U12G A59G G75A G122U G125A A129G: the self-cleavage was 0.16. Turning to A22U A24G A59C A77U U85A A117U G125A, the self-cleavage came to 0.19. Take G35U U45C A69G: the self-cleavage was found to be 0. The value for U12C U47C U102C was 0.71. In the case of U13A U73G A107C U132C U143A, the self-cleavage is 2.04. Turning to A65G U85A U100C, the self-cleavage came out at 0. In the case of U87A U102C U112C, the self-cleavage turned out to be 0.06. With U15C G114A A124U, the self-cleavage was 1.64. With U62C G82A U115A, the self-cleavage came to 0.09.

With A6G U13C U62C, the self-cleavage was found to be 0.35. Under U12C U47G U62C stands 0.28; under A50U A65G A124U, 0.03. Under U45C U62A U112C stands 0.07. With G21U A24G U85A, the self-cleavage amounted to 0.08. The value for G33C U62C U132C A140G was 0.13. Take A59G A67U A94G: the self-cleavage was 0. With A2G U100C A141U A142U, the self-cleavage was 1.09. As to A22G U29G G88A, the self-cleavage was 0.12. Under U13C A65G U119C stands 0.12. Under A67G A69U A121U stands 0; under A121U A138G A142G, 1.94; under A59G G82A U108C, 0.05. The value for A2U A22G A64U G82A A124G A142G was 0.26; that for U39C A94G A136G was 0.41; that for A64C C76U U91C U102C was 0.21. Regarding U26C G105A A124U, the self-cleavage stood at 1.71. The value for U20C U45A A138G U143C was 1.1. On to A31G G32C G60A A69U A138U A140G, for which the self-cleavage is 0.

Take U73A U96A A136G: the self-cleavage came to 0.29. Under A57G U62A A77U U112C stands 0.09; under A57G U85C A124G, 0; under U13C G48A A142G, 1.13. Take C19U G75U A117G A142U: the self-cleavage is 1.71. Under U39A U96C U134C A138U stands 0.1; under U62C A92G U109A A136G, 0.04. Under A79G U115A A121G stands 2.09. Under A24G A78G U102C U119C stands 0.

Turning to A43C A64G C120U U143C, the self-cleavage is 0.26. Regarding U12G U29C C103A, the self-cleavage was 0.85.

As to A22U U45A A140G, the self-cleavage came out at 0.57.

Take U14C A43G A121G: the self-cleavage came to 2.06. With U20A A124U A129G, the self-cleavage worked out at 1.76.

For U91C U109A A124G A138U, the self-cleavage turned out to be 1.6. Under A57G U62C A136G stands 0.02; under A57G A59G U108C, 0.26; under U14G A94G U134A, 0.6. The value for U62C C71A U73A U87C U112C was 0.03; that for U20A G32U A94G was 0.14; that for A42G U62A U130C was 0. For the variant A2U U39A A42G, the self-cleavage turned out to be 0.39. For U9A C76U A78G U115A, the self-cleavage turned out to be 1.86. The value for U1C U26A U47A U91C was 0.18. In the case of U62A A65G A141G, the self-cleavage was 0.04. U52G A69G U134C G135U: the self-cleavage was found to be 0.77.

As to U39G U115C U119C, the self-cleavage came to 0. On to U12C A77G C99U G139U, for which the self-cleavage stood at 1.28.

With A2G C99G A124G, the self-cleavage was determined as 1.16. Consider U39G A59G C90U, for which the self-cleavage worked out at 0.06.
